Consider two molecules from patent US20100021460A1 (Genentech, published 2010).

Experiment [1] concerns the target T1, soluble histidine-tagged baboon FcRn (baboon, UniProt Q8SPV9 24-297, limits assumed).
T1 construct: Soluble, expressed transiently in CHO cells, nickel-column purified, histidine tag kept
T1 chain: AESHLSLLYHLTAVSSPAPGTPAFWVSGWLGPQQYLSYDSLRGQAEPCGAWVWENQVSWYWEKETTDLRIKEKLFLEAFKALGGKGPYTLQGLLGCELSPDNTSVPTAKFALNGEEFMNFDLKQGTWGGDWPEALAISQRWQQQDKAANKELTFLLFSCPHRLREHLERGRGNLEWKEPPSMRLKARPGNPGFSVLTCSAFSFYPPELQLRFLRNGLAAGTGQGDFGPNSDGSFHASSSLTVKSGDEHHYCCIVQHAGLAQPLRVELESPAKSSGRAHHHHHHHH
The experiment is described as follows: BIAcore solution competition at pH 6, reference Variant B. How it is done: (§1) The IC₅₀s of Variant B and Variant D binding to human and baboon FcRn were measured using the BIAcore 3000 surface plasmon resonance system (BIAcore Inc, Piscataway, N.J.; Lofas and Johnsson 1990; Karlsson et al. 1991). The amine-coupling method used for immobilization of a control monoclonal antibody which contains human IgG1 Fc similar to that of Variant D but lacking the modifications of Variant D (Control Antibody) onto a carboxymethylated dextran biosensor chip (Sensor Chip CM5, BIAcore) was essentially as described in the manufacturer's instructions (BIAcore 1991; Johnsson et al. 1991). Briefly, the biosensor chip was activated using N-ethyl-N′-(3-dimethylaminopropyl) carbodiimide hydrochloride (EDC HCl) mixed with N-hydroxysuccinimide (NHS). Control Antibody, diluted to 12 μg/ml in 10 mM sodium acetate, pH 4, was injected over the chip to give an immobilized antibody signal of approximately 3000 RUs. Unreacted succinimide groups were then blocked with an injection of 1 M ethanolamine, giving a final density of approximately 2000 RUs of Control Antibody.
(§2) Soluble histidine-tagged human FcRn (SEQ ID NO: 13) and soluble histidine-tagged baboon FcRn (SEQ ID NO: 14) were produced from transient expression in CHO cells using standard methods well known to one skilled in the art. […]

Experiment [2] addresses T2, soluble histidine-tagged human FcRn (human, UniProt P55899 in part).
T2 construct: Soluble, expressed transiently in CHO cells, nickel-column purified, histidine tag kept
Described as above. The method, then:
as §1, §2

For experiment [3], the target named is T3, human FcγRIA extracellular domain-Gly/6×His/GST fusion (human, UniProt P12314 16-292).
T3 construct: extracellular domain; Captured on anti-GST coated plates; also called FcγR1; not shown: C-terminal Gly/6×His/glutathione S-transferase (GST) tag
T3 sequence (P12314 16-292): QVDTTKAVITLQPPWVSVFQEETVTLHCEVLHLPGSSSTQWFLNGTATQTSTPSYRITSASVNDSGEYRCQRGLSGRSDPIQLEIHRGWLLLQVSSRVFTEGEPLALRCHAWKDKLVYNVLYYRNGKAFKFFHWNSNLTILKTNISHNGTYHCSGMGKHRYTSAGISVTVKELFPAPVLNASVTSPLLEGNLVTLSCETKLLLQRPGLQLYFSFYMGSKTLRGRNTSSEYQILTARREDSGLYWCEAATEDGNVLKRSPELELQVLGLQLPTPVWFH
Kind of experiment: ELISA, receptor captured by anti-GST, monomeric antibody. How it is done:
(§3) Plates were coated with an anti-GST antibody (Genentech) and blocked with bovine serum albumin (BSA). After washing with phosphate-buffered saline (PBS) containing 0.05% Tween-20 with an ELx405™ plate washer (Biotek Instruments; Winooski, Vt.), Fcγ receptors were added to the plate at 25 ng/well and incubated at room temperature for 1 hour. After the plates were washed, serial dilutions of test antibodies were added as multimeric complexes and the plates were incubated at room temperature for 2 hours.
For the high-affinity receptor (FcγRIA), the antibodies were assayed as monomers without cross-linking. The rest of the assay procedures were the same as those for low-affinity receptors.

The target of experiment [4] is T4, human FcγRIIIA (F158 allotype) extracellular domain-Gly/6×His/GST fusion (human, UniProt P08637 in part).
T4 construct: extracellular domain; Captured on anti-GST coated plates; also called CD16 F-158; not shown: C-terminal Gly/6×His/glutathione S-transferase (GST) tag
Kind of experiment: ELISA, receptor captured by anti-GST, antibody as multimers. How it is done:
(§4) The binding affinities of various antibodies to FcγRIA, FcγRIIA, FcγRIIB, and two allotypes of FcγRIIIA (F158 and V158) were measured in ELISA-based ligand-binding assays using the respective recombinant Fcγ receptors. Purified human Fcγ receptors were expressed as fusion proteins containing the extracellular domain of the receptor γ chain linked to a Gly/6×His/glutathione S-transferase (GST) polypeptide tag at the C-terminus. The binding affinities of antibodies to those human Fcγ receptors were assayed as follows.
as §3

The target in experiment [5] is T5, human FcγRIIIA (V158 allotype) extracellular domain-Gly/6×His/GST fusion (human, UniProt P08637 in part).
T5 construct: extracellular domain; Captured on anti-GST coated plates; Residue 158 is counted on the mature receptor, not on the precursor entry; also called CD16 V-158; not shown: C-terminal Gly/6×His/glutathione S-transferase (GST) tag
Described as above. How it is done: as §4, §3

The target of experiment [6] is T6, human FcγRIIB extracellular domain-Gly/6×His/GST fusion (human, UniProt P31994 43-217).
T6 construct: extracellular domain; Captured on anti-GST coated plates; also called CD32B; not shown: C-terminal Gly/6×His/glutathione S-transferase (GST) tag
T6 sequence (looked up): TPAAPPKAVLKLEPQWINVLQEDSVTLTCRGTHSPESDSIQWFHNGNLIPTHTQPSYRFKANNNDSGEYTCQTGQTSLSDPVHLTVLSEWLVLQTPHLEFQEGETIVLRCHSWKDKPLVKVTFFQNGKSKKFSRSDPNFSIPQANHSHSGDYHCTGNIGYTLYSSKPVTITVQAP
Described as above. How it is done: as §4, §3

Experiment [7] concerns the target T7, human CD4 (human, UniProt P01730).
T7 construct: whole, on cells; primary human CD4+ T cells; T cells of RA patients in vivo; also called CD4 on Jurkat cells; CD4 on human CD4+ T cells
Kind of experiment: equilibrium binding on CD4+ Jurkat cells, 125I-antibody displaced by unlabeled antibody, 4 h at 4 C. How it is done: The Jurkat human T-cell leukemic line expresses CD4 (see FIG. 4A) and was utilized to determine the affinity of Variant B and Variant D for CD4 by equilibrium binding analysis. Variant B is similar to Variant D except that Variant B carries the normal (wild-type) amino acid at position 434, N434 (see Table 2). Equilibrium binding measurements were carried out as follows.
CD4+ Jurkat cells were cultured in growth media, which contained RPMI 1640 media supplemented with 10% fetal bovine serum (FBS), 2 mM L-glutamine, 1× penicillin-streptomycin, at 37° C. in 5% CO₂. Cells were washed with binding buffer (50:50 DMEM/F12 with 2% FBS and 50 mM Hepes, pH 7.2) and were placed into 96-well plates at approximately 2.3×10⁵ cells/well in 0.2 mL of binding buffer. The non-depleting anti-CD4 antibody variants (Variant B and Variant D) were iodinated using the Iodogen method. […] The filters were counted on a Wallac Wizard 1470 gamma counter (Perkin Elmer Life and Analytical Sciences Inc.; Wellesley, Mass.). The binding data were evaluated using NewLigand software (Genentech), which uses the non-linear regression fitting algorithm of Munson and Rodbard, Anal. Biochem. 107:220-39, 1980, to determine the binding affinity of the antibody.

For experiment [8], the target named is T1, soluble histidine-tagged baboon FcRn. Kind of experiment: BIAcore solution competition, 100 nM FcRn preincubated with antibody, free FcRn captured on immobilized Control Antibody, pH 6.0. An excerpt: (§5) Soluble histidine-tagged human FcRn (SEQ ID NO: 13) and soluble histidine-tagged baboon FcRn (SEQ ID NO: 14) were produced from transient expression in CHO cells using standard methods well known to one skilled in the art. Each of the histidine-tagged FcRn polypeptides was purified using nickel column chromatography according to methods well known to one skilled in the art. The histidine tags were not removed from the FcRn polypeptides following purification. For simplicity, the histidine-tagged FcRn polypeptides are subsequently referred to as “FcRn” in the discussion of assay methodology and results below but it is understood that the histidine tags were still attached to the polypeptides. Each of Variant B and Variant D were serially diluted in running buffer (PBS containing 0.05% Tween-20 pH 6) and incubated at room temperature with a constant (100 nM) concentration of FcRn for 30 min before injection. […]
(§6) Concentrations of free FcRn were plotted against the log of antibody concentrations in GraphPad Prism. The IC₅₀ of binding was determined by fitting the data to a 4 parameter curve (Y=m4+(m3−m4)/(1+10̂((log IC50−X)*Hillslope)) where m3 is the maximal signal, m4 is the minimal signal and the Hillslope is a slope constant. Experiments were repeated at least three times, and the IC₅₀s were reported with standard error of the mean (SEM).

For experiment [9], the target named is T2, soluble histidine-tagged human FcRn. Described as above.
Source text: as §5, §6

Experiment [10] has as its target T7, human CD4. Kind of experiment: flow cytometry on primary human CD4+ T cells, mean of four experiments. How it is done:
To characterize binding of Variant D to primary human CD4+ T cells and to determine its cross-reactivity to CD4 from non-human primate species, saturation binding titration experiments were performed on cells from humans, baboons, cynomolgus monkeys, and rhesus monkeys. Binding was analyzed and quantified by flow cytometry as described below.
Fresh human blood from a healthy human donor was obtained. Non-human primate blood was obtained from Southwest Foundation for Biomedical Research in San Antonio, Tex. (i.e., baboon, cynomolgus monkey, and rhesus monkey). Each sample of blood was diluted with an equivalent volume of PBS, overlaid on Ficoll (GE Healthcare; Princeton, N.J.), then centrifuged to isolate mononuclear cells. […] Cells were then incubated with Fcγ-specific human IgG PE-conjugated antibody (Jackson ImmunoResearch Laboratories, Inc.; West Grove, Pa.) at 20 μg/mL for another 30 minutes on ice to detect the quantity of anti-CD4 antibody bound. […] Samples were run on a FACSCalibur flow cytometer (BD Biosciences) and analyzed using Flowjo software. The mean fluorescence intensity (MFI) of CD4 staining was plotted as a function of the concentration of Variant D present during binding. Half-maximal effective concentration (EC50) values were calculated from the binding curves using a four-parameter curve-fitting algorithm (KaleidaGraph™ software).

B1: non-depleting anti-CD4 antibody Variant D (antibody, human IgG1, kappa, N297A)
light: DIVMTQSPDSLAVSLGERATINCKASQSVDYDGDSYMNWYQQKPGQPPKLLIYVASNLESGVPDRFSGSGSGTDFTLTISSLQAEDVAVYYCQQSLQDPPTFGGGTKVEIKRTVAAPSVFIFPPSDEQLKSGTASVVCLLNNFYPREAKVQWKVDNALQSGNSQESVTEQDSKDSTYSLSSTLTLSKADYEKHKVYACEVTHQGLSSPVTKSFNRGEC
heavy: QVQLVQSGAEVKKPGASVKVSCKASGYTFTAYVISWVRQAPGQGLEWMGEIYPGSGSSYYNEKFKGRVTMTRDTSTSTVYMELSSLRSEDTAVYYCARSGDGSRFVYWGQGTLVTVSS[human IgG1 constant region with N297A N434H (EU numbers) omitted]
notes: Human IgG1 constant regions; N297A (aglycosylated) and N434H; Iodinated (125I) tracer plus unlabeled antibody in the Jurkat assay; also called LC1/HC4
As to B1, the “fold tighter binding than Variant B” value in experiment [1] and in [2] was around 3.5 fold throughout. Also, the binding result in [3], in experiment [4], in experiment [5] and in experiment [6] was “binds” in each case. In addition, the Kd with human CD4 [7] is 0.065 nM. Also, the IC50 in experiment [8] is 160 nM; in [9], 144 nM. The molecule further gave an EC50 with human CD4 [10] of 0.17 nM.

B2: non-depleting anti-CD4 antibody Variant B (antibody, human IgG1, kappa, N297A)
light: DIVMTQSPDSLAVSLGERATINCKASQSVDYDGDSYMNWYQQKPGQPPKLLIYVASNLESGVPDRFSGSGSGTDFTLTISSLQAEDVAVYYCQQSLQDPPTFGGGTKVEIKRTVAAPSVFIFPPSDEQLKSGTASVVCLLNNFYPREAKVQWKVDNALQSGNSQESVTEQDSKDSTYSLSSTLTLSKADYEKHKVYACEVTHQGLSSPVTKSFNRGEC
heavy: QVQLVQSGAEVKKPGASVKVSCKASGYTFTAYVISWVRQAPGQGLEWMGEIYPGSGSSYYNEKFKGRVTMTRDTSTSTVYMELSSLRSEDTAVYYCARSGDGSRFVYWGQGTLVTVSS[human IgG1 constant region with changes omitted]
notes: Humanized, human IgG1 constant regions; N297A (aglycosylated), wild-type N434; Iodinated (125I) tracer plus unlabeled antibody in the Jurkat assay; also called anti-CD4 Variant B; LC1/HC2
With B2, the Kd with human CD4 [7] turned out to be 0.062 nM.
